Results reported in the supplement of paper PMC11348887.
Where a name gives a salt, the structure may show the parent alone. This is one part of the list. Rule as the data show it: active = -2 or less and inactive = the rest. Single values are uncertain, as repeats are few or missing.

Tested on: hPSC-derived cortical neurons (WA09)
Assay: nuclei number (viability) z-score; higher = more surviving cells
Details: 5 µM; treatment: days 7-14 after plating, readout day 21
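Also: nuclei counted from DAPI counterstain by automated high-content image analysis, four fields per well at ×20 in 384-well plates, with sequential b-score then z-score normalization.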

Row | SMILES | nuclei number (z-score)
1 | C[C@@H]1O[C@@H](O[C@H]2C[C@@H](O)[C@]3(CO)[C@H]4[C@H](O)C[C@]5(C)[C@@H](C6=CC(=O)OC6)CC[C@]5(O)[C@@H]4CC[C@]3(O)C2)[C@H](O)[C@H](O)[C@H]1O [Ouabain] | active: -5.81
2 | CCN(C)C(=O)Oc1cccc([C@H](C)N(C)C)c1 [Rivastigmine] | inactive: -0.351
3 | CCN(C)C(=O)Oc1cccc([C@H](C)N(C)C)c1 [Rivastigmine Tartrate] | inactive: 0.359
4 | CCC1(c2ccc(N)cc2)CCC(=O)NC1=O (configuration not stated) [Aminoglutethimide] | inactive: 0.461
5 | C[N+]1(C)[C@@H]2C[C@@H](OC(=O)[C@H](CO)c3ccccc3)C[C@H]1[C@@H]1O[C@@H]12 [Methscopolamine] | inactive: 1.81
6 | C[C@]12CC[C@H](O)C[C@@H]1CC[C@@H]1[C@@H]2CC[C@]2(C)C(=O)CC[C@@H]12 [Epiandrosterone] | inactive: -0.374
7 | CN(C)C(=O)Oc1cc(OC(=O)N(C)C)cc(C(O)CNC(C)(C)C)c1 (configuration not stated) [Bambuterol HCl] | inactive: -0.00597
8 | Oc1cc(Cl)ccc1Oc1ccc(Cl)cc1Cl [Triclosan] | inactive: -0.391
9 | C[C@]12N[C@H](Cc3ccccc31)c1ccccc12 [MK-801 (Dizocilpine)] | inactive: 2.1
10 | CC(=O)Nc1ccc(OC[C@](C)(O)C(=O)Nc2ccc([N+](=O)[O-])c(C(F)(F)F)c2)cc1 [Andarine] | inactive: 1.16
11 | C[C@](O)(COc1ccc(C#N)cc1)C(=O)Nc1ccc(C#N)c(C(F)(F)F)c1 | inactive: 0.998
12 | CNCC(=O)c1ccc(O)c(O)c1 [Adrenalone HCl] | inactive: 1.18
13 | CC(C)N(CCNC(=O)CN1CCCC1=O)C(C)C [Pramiracetam] | inactive: 1.29
14 | COC(=O)C1=CCCN(C)C1 [Arecoline] | inactive: 0.794
15 | COc1cc2c(cc1OC)[C@@]13CCN4CC5=CCO[C@H]6CC(=O)N2[C@H]1[C@H]6[C@H]5C[C@H]43 [Brucine sulfate salt hydrate] | inactive: -1.65
16 | C[C@]12CC[C@H]3[C@@H](CC[C@@]45O[C@@H]4C(O)=C(C#N)C[C@]35C)[C@@H]1CC[C@@H]2O [Trilostane] | inactive: -0.0494
17 | COc1ccc2c(c1)/C(=C/c1cnc[nH]1)C(=O)N2 | inactive: -0.121
18 | COc1ccc(C[C@H]2NC[C@H](O)[C@H]2OC(C)=O)cc1 [Anisomycin] | active: -5.26
19 | CCC(COC(=O)c1cc(OC)c(OC)c(OC)c1)(c1ccccc1)N(C)C (configuration not stated) [Trimebutine] | inactive: 0.619
20 | C/C=C(\C)C(=O)N[C@@H](c1ccccc1)[C@@H](O)C(=O)O[C@H]1C[C@@]2(O)[C@@H](OC(=O)c3ccccc3)[C@@H]3[C@]4(OC(C)=O)CO[C@@H]4C[C@H](O)[C@@]3(C)C(=O)[C@H](OC(C)=O)C(=C1C)C2(C)C [Cephalomannine] | inactive: -0.997
21 | NCCc1c[nH]c2ccc(O)cc12 [Serotonin HCl] | inactive: 0.00834
22 | C[C@@H]1CC[C@H]2[C@@H](C)C(=O)O[C@@H]3O[C@@]4(C)CC[C@@H]1[C@]32OO4 [Artemisinin] | inactive: 0.971
23 | CCC1(c2cccc(O)c2)CCCCN(C)C1 (configuration not stated) [Meptazinol HCl] | inactive: -0.0265

Row | SMILES | nuclei number (z-score)
24 | Cc1c(Cl)c(OCC(=O)N2CCN(C)CC2)nc2sc(C(=O)NC3CC3)c(N)c12 | inactive: 1.35
25 | C#C[C@]1(O)C=C[C@H]2[C@@H]3CCC4=CC(=O)CC[C@@H]4[C@H]3CC[C@@]21CC [Gestodene] | inactive: -0.191
26 | NCC(=O)O.[C-]#[O+].[C-]#[O+].[C-]#[O+].[Cl][Ru] | inactive: 1.63
27 | Cc1cccc([C@H](C)c2c[nH]cn2)c1C [Dexmedetomidine] | inactive: 0.145
28 | Cc1cccc([C@H](C)c2c[nH]cn2)c1C [Dexmedetomidine HCl] | inactive: 0.0087
29 | OCC(Br)(Br)Br [2,2,2-Tribromoethanol] | inactive: -0.244
30 | C[C@@]12N[C@@H](Cc3ccccc31)c1ccccc12 [(-)-MK 801 Maleate] | inactive: -0.0489
31 | CC(=O)OC12COC1CC(O)C1(C)C(=O)C(O)C3=C(C)C(O)CC(O)(C(OC(=O)c4ccccc4)C21)C3(C)C (configuration not stated) [10-Deacetylbaccatin-III] | inactive: -0.256
32 | O=P1(NCCCl)OCCCN1CCCl (configuration not stated) [Ifosfamide] | inactive: -0.185
33 | NC(=O)CN1CCCC1=O [Piracetam] | inactive: 0.0558
34 | CN(CC[C@H](N)CC(=O)N[C@@H]1C=C[C@@H](n2ccc(N)nc2=O)O[C@H]1C(=O)O)C(=N)N [Blasticidin S HCl] | active: -6.86
35 | O=C(Oc1ccc([N+](=O)[O-])cc1)N1CCC(C(O)(c2ccc3c(c2)OCO3)c2ccc3c(c2)OCO3)CC1 | inactive: 0.579
36 | COc1cc2c(cc1OC)C1CC(=O)C(CC(C)C)CN1CC2 (configuration not stated) [Tetrabenazine (Xenazine)] | inactive: 0.841
37 | O=C1CCC[C@@H]2[C@H]3CCCN4CCC[C@@H](CN12)[C@@H]34 [(+)-Matrine] | inactive: 0.773
38 | Cc1cccc(C)c1NC1=NCCCS1 [Xylazine HCl] | inactive: -0.312
39 | O=C(O[C@H]1C[N+]2(CCCOc3ccccc3)CCC1CC2)C(O)(c1cccs1)c1cccs1 [Aclidinium Bromide] | inactive: -0.497
40 | CN[C@@H]1C[C@H]2O[C@@](C)([C@@H]1OC)n1c3ccccc3c3c4c(c5c6ccccc6n2c5c31)C(=O)NC4 [Staurosporine] | active: -3.88
41 | CC[C@@H]1/C=C/C=C/C[C@H](C)[C@H](O)[C@](C)(O)C(=O)[C@H](C)[C@@H](O)[C@H](C)C(=O)[C@H](C)[C@@H](O)[C@H](C)/C=C/C(=O)O[C@H]2[C@@H](C)[C@@H](CC1)O[C@@]1(CC[C@@H](C)[C@@H](C[C@H](C)O)O1)[C@@H]2C [Oligomycin A] | active: -3.16
42 | Cc1cc(SCc2sc(-c3ccc(C(F)(F)F)c(F)c3)nc2C)ccc1OCC(=O)O | inactive: -0.15
43 | CC(C)(C)[C@]1(O)CC2OC(=O)CC23C(=O)OC2OC(=O)[C@H](O)C231 (some centres not stated) [Bilobalide] | inactive: -0.3
44 | C/C(=C\c1csc(C)n1)[C@@H]1C[C@@H]2O[C@]2(C)CCC[C@H](C)[C@H](O)[C@@H](C)C(=O)C(C)(C)[C@@H](O)CC(=O)O1 [Epothilone B (EPO906_ Patupilone)] | inactive: 1.34
45 | C=CC[C@]1(O)CC[C@H]2[C@@H]3CCC4=CC(=O)CCC4=C3C=C[C@@]21C [Altrenogest] | inactive: 0.0917
46 | COC[C@H]1OC(=O)c2coc3c2[C@@]1(C)C1=C(C3=O)[C@@H]2CCC(=O)[C@@]2(C)C[C@H]1OC(C)=O [Wortmannin] | inactive: -1.01

Row | SMILES | nuclei number (z-score)
47 | Cc1cccc(C(C)c2c[nH]cn2)c1C (configuration not stated) [Medetomidine HCl] | inactive: -0.109
48 | C=C[C@H]1CN2CC[C@H]1C[C@H]2[C@H](O)c1ccnc2ccccc12 [Cinchonidine] | inactive: -0.281
49 | COc1ccc2c(c1)[C@]13CCCC[C@@H]1[C@H](C2)N(C)CC3 [Dextromethorphan hydrobromide hydrate] | inactive: 0.67
50 | CN1[C@@H]2CC(O)C[C@H]1[C@@H]1O[C@@H]12 (some centres not stated) [Scopine] | inactive: 0.418
51 | CC1(C)CC(O)CC(C)(C)N1[O] [Tempol] | inactive: 0.829
52 | O=S(=O)(CC1CS1)c1ccc(Oc2ccccc2)cc1 (configuration not stated) | inactive: 0.535
53 | CC(=O)OC(C)(C)/C=C/C(=O)[C@](C)(O)[C@H]1[C@H](O)C[C@@]2(C)[C@@H]3CC=C4[C@H](C[C@H](O)C(=O)C4(C)C)[C@]3(C)C(=O)C[C@]12C [Cucurbitacin B] | active: -5.91
54 | O=c1[nH]c2ccccc2n1CCCN1CCC(n2c(=O)[nH]c3cc(Cl)ccc32)CC1 [Domperidone] | inactive: -0.0897
55 | c1cc2c(cc1[C@H]1OC[C@H]3[C@@H]1CO[C@@H]3c1ccc3c(c1)OCO3)OCO2 [Sesamin] | inactive: 0.319
56 | CC[C@H]1CN2CC[C@H]1C[C@@H]2[C@@H](O)c1ccnc2ccc(OC)cc12 [Hydroquinidine] | inactive: -0.486
57 | COc1ccc(CN2CCNCC2)c(OC)c1OC [Trimetazidine dihydrochloride] | inactive: -0.346
58 | Cc1cc(O)ccc1Cl [Chlorocresol] | inactive: 3.97
59 | NCCc1ccc(S(=O)(=O)F)cc1 | inactive: 2.54
60 | Fc1cc(F)c2c(c1)[C@H]1C=CC[C@H]1C(c1cccnc1)N2 (some centres not stated) [Golgicide A] | active: -3.51
61 | CN1[C@@H]2CC[C@H]1C[C@@H](OC(=O)[C@H](CO)c1ccccc1)C2 [Hyoscyamine] | active: -7.75
62 | Nc1nc(N)nc(NC2CC2)n1 [Cyromazine] | inactive: -0.0925
63 | N=C(N)NN [Aminoguanidine hydrochloride] | inactive: 0.99
64 | O=[N+]([O-])/C=C/c1ccc2c(c1)OCO2 [MNS (3_4-Methylenedioxy-_-nitrostyrene_ MDBN)] | inactive: -0.33
65 | CC(C)N(CCC(C(N)=O)(c1ccccc1)c1ccccn1)C(C)C (configuration not stated) [Disopyramide Phosphate] | inactive: 1.77
66 | O=[N+]([O-])O[C@@H]1CO[C@H]2[C@@H]1OC[C@@H]2O [Isosorbide Mononitrate] | inactive: 0.221
67 | C[N+](C)(C)CCCCCCCCCC[N+](C)(C)C [Decamethonium Bromide] | inactive: -0.0114
